Results reported in PMC4336329 (PLoS ONE, 2015).
Screen size: about 310,000 compounds; about 14,000 (4.5%) showed an effect of 50% or more. The effect is printed as a negative number. The list shows a part of the results.

What follows are compounds tested against human ether-à-go-go-related gene (hERG) potassium channel (human, UniProt Q12809) (assay: primary screen, population patch clamp on CHO cells stably expressing hERG).
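Also: peak tail current of the secondary pulse compared with the same well before compound.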

human ether-à-go-go-related gene (hERG) potassium channel, sequence (Q12809 whole entry, looked up): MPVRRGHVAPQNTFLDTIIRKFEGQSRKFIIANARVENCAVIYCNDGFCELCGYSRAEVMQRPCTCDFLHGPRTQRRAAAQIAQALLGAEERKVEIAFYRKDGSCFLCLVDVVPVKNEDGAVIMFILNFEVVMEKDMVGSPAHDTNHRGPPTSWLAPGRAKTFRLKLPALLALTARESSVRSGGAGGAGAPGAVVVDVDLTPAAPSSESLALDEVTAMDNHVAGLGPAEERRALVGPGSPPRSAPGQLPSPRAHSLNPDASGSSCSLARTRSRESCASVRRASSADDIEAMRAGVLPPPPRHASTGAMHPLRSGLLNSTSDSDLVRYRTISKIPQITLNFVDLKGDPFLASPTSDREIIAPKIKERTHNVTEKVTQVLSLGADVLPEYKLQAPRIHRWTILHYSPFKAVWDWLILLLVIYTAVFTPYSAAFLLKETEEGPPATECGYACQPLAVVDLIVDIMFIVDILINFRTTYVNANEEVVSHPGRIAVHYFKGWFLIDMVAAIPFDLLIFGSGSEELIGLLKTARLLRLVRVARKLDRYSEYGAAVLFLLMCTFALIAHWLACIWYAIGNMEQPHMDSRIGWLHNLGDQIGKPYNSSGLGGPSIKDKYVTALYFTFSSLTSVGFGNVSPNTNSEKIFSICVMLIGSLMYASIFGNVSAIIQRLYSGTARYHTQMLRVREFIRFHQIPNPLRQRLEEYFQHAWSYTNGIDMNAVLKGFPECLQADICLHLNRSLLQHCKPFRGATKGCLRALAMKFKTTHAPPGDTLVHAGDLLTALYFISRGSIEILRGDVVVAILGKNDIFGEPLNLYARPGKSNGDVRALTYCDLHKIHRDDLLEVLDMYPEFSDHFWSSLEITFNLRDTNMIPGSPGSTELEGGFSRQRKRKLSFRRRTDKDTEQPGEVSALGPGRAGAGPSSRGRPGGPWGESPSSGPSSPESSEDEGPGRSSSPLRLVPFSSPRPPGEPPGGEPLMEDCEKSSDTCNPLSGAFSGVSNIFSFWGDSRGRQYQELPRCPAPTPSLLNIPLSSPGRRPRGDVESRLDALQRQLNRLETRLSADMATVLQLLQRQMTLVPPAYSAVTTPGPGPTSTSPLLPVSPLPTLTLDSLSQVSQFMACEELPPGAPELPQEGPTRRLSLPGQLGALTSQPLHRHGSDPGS

Point of comparison: CCNCCC(CCC(C)C)c1ccc2c(c1)OCO2 (centres unmarked), “hERG current change (%, negative = inhibition) at 10uM” value -72%. Against it:
- CCc1ccc(N2CC(C(=O)OCC(=O)Nc3ccc(C#N)cc3)CC2=O)cc1 (centres unmarked) — higher, -57.9%
- Cc1ccc(S(=O)(=O)N(C)c2ccc(OCC(=O)N3CCCCC3)cc2)cc1 — higher, -10.5%
- COC(=O)c1ccc(C2/C(=C(/O)c3ccc(OC)cc3)C(=O)C(=O)N2c2cc(C)on2)cc1 (centres unmarked) — higher, 9.91%
- CC(=O)Nc1ccc(NS(=O)(=O)c2ccc(C)cc2)c([N+](=O)[O-])c1 — higher, -24.9%
- Cc1ccc(CNC(=O)C2CCN(S(=O)(=O)c3cnc[nH]3)CC2)cc1 — higher, 6.12%
- Cc1ccc(Nc2ccc(N)cc2S(=O)(=O)O)cc1 — higher, 14.8%
- COc1ccc(N(C(=O)Cn2nnc(-c3ccc(F)cc3)n2)C(C)C(=O)NC2CCCC2)cc1 (centres unmarked) — higher, -22%
- Cc1ccc(S(=O)(=O)N(C)c2ccc(OCc3cccc(C)c3)cc2)cc1 — higher, 22.5%
- C#CCn1c(=NC(=O)c2cc(Cl)sc2Cl)sc2cc(S(N)(=O)=O)ccc21 — higher, 4.89%
- O=S(=O)(Nc1nc2ccccc2nc1N1CCc2ccccc2C1)c1ccc(Br)cc1 — higher, 5.81%
- Nc1c(NCc2ccccc2)c(=O)c1=O — higher, -6.37%
- CC(C)OC(=O)CSc1nnc(CNc2ccc(Cl)cc2)n1C — higher, -20.2%
- CCCn1c2c(c(O)c(C(=O)Nc3ccc(OC)cc3)c1=O)CCCC2 — higher, 6.58%
- CCOC(=O)c1c(C)[nH]c(C(=O)CN2C(=O)NC(CC)(c3ccccc3)C2=O)c1C (centres unmarked) — higher, 10.5%
- O=C(CSc1nncs1)Nc1nnc(-c2ccccc2)o1 — higher, 19.3%
- CCOc1ccc(N/C=C\C(=O)c2ccc3c(c2)OCO3)cc1 — higher, 16.7%
- Cc1ccc(CN(C)C(=O)CSc2nnc3n2CCCCC3)c(C)c1 — higher, -1.03%
- Cc1ccc(-c2ccc(C(=O)NCCCNC(=O)c3cnccn3)o2)cc1Cl — higher, 25.5%
- CCCSc1nc2c(cnn2-c2ccc(C)c(C)c2)c(=O)[nH]1 — higher, 7.52%
- O=C(COC(=O)Cc1ccc(Cl)cc1)Nc1ccc2[nH]c(=O)[nH]c2c1 — higher, 2.65%
- COc1cc(CN2CCN(C(=O)CC(C)C)CC2)cc(OC)c1O.O=C(O)C(=O)O — higher, -0.00662%
- Cc1ccc(C)c2[nH]c(=O)c(CN(Cc3nnnn3C3CCCCC3)CC3CCCO3)cc12 (centres unmarked) — higher, -7.62%
- COc1ccc(/C=C/C(=O)NC(=S)N2C[C@H]3C[C@H](C2)c2cccc(=O)n2C3)cc1OC — higher, 6.67%
- O=C(Cc1c[nH]c2ccccc12)Nc1nnc(C2CC2)s1 — higher, -4.79%
- Nc1c(N(CCC2=CCCCC2)C(=O)Cc2ccc(F)cc2)c(=O)[nH]c(=O)n1Cc1ccccc1 — higher, -26.6%
- CCCN(CCC)CCCNC(=O)C1c2cc(OC)c(OC)cc2C(=O)N(C)C1c1cccs1 (centres unmarked) — higher, 9.81%
- O=C(NC(NNc1ccc([N+](=O)[O-])cc1)(C(F)(F)F)C(F)(F)F)c1ccc(Cl)cc1 — higher, -8.5%
- O=C(COC(=O)c1ccc(O)cc1)c1ccc(S(=O)(=O)N2CCCCC2)cc1 — higher, 5.37%
- CC(C)CNC(=O)CN1C(=O)NC2(CCc3ccccc32)C1=O (centres unmarked) — higher, 22%
- CCOC(=O)C(NC(=O)C1C(C)N1S(=O)(=O)c1ccc(C)cc1)C(=O)OCC (centres unmarked) — higher, 5.38%
- O=C(O)c1ccc(N=NN2CCCCCC2)cc1 — higher, 22.6%
- COc1ccc(CNS(=O)(=O)CCNC(=O)c2cccc(OC)c2)cc1 — lower, -78.1%
- CC(=O)NC(Cc1ccc(F)cc1)C(=O)O (centres unmarked) — higher, -24.1%
- Cc1cc2[nH]cnc2c([N+](=O)[O-])c1C — higher, -24.5%
- CCC(=O)N1c2ccc(S(=O)(=O)N3CCOCC3)cc2CC1C (centres unmarked) — higher, 18.1%
- CN(Cc1ccccc1)C(=O)COC(=O)C1CCN(S(=O)(=O)c2ccc3c(c2)OCCO3)CC1 — higher, -8.41%
- CCOC(=O)c1c(C)[nH]c(C(=O)NCc2ccccn2)c1C — higher, -6.54%
- C=CCNC(=O)C1CCN(c2ccc(S(=O)(=O)N3CCOCC3)cc2Cl)CC1 — higher, -21.1%
- CCOC(=O)C1=C(COC(=O)CSc2ccc(C)cc2)NC(=O)NC1C (centres unmarked) — higher, -18.9%
- O=C(CNC(=O)c1ccncc1)Nc1ccc(F)c(F)c1 — higher, -29.9%
- CC1(C)OC(=O)C(=CNc2ccccc2F)C(=O)O1 — higher, -3.78%
- Cc1ccc(OCc2nc3c4c(ncn3n2)-c2ccccc2CC42CCCC2)cc1 — higher, 7.02%
- CCCOc1ccc(CCC(=O)N/N=C/c2ccco2)cc1 — higher, -2.52%
